Data taken from ChEMBL document CHEMBL4888484, “Replenishing the malaria drug discovery pipeline: Screening and hit evaluation of the MMV Hit Generation Library 1 (HGL1) against asexual blood stage Plasmodium falciparum ,using a nano luciferase reporter read-out” (2022).
Among all 150,000 compounds or so, about 540 (0.36%) showed an effect of 50% or more. The list shows a part of the results.

Tested on: Plasmodium falciparum
Assay: Primary screen in NF54 nanoGlo assay, in single point, at 2uM, 72h; a lower Z score goes with more inhibition
Type: functional, Erythrocyte
Conditions: timepoint 72 hour

| SMILES | % Inhibition [%] | Z score |
| --- | --- | --- |
| O=S(=O)(CC1CCOCC1)N[C@@H](c1ccccc1)c1cccnc1 | -1 | 0.24 |
| O=C(COc1ccccc1)N1CC[C@H]2[C@H](CCCN2Cc2cccs2)C1 | -10 | 1.37 |
| O=C(NCCc1ccccc1)N[C@H]1CCCN(c2cc(-c3ccncc3)n[nH]2)C1 | -4 | 0.35 |
| O=C(c1cnc2ccccn12)N1CCC(c2nc(-c3ccccc3)no2)CC1 | 1 | -0.12 |
| O=S(=O)(NCCN1CCn2ccnc2C1)c1ccccc1 | 0 | -0.06 |
| Cc1ncsc1CCC(=O)NCCCc1nnc2ccccn12 | 8 | -1.06 |
| C[C@H]1OCC[C@H]1Nc1cc(C#N)ccn1 | -13 | 2.48 |
| COc1ccc(COCC(=O)Nc2ccc(CN(C)C)cn2)cc1 | -5 | 1 |
| CCOc1ccc(CC(=O)Nc2cccc3[nH]ccc23)nc1 | 1 | -0.16 |
| CC(C)(C)CC(NC(=O)N1CCC[C@H]1CO)C(F)(F)F (some centres not stated) | -4 | 0.69 |
| O=C1[C@@H]2C(c3ccccc3Cl)=NO[C@@H]2C(=O)N1c1cccc2ccccc12 | 6 | -0.57 |
| Cc1cc(C(=O)Nc2cnns2)n(C)n1 | -3 | 0.44 |
| CCc1ccc(S(=O)(=O)NC(=O)C2CC3(CCC3)C2)cc1 | -1 | 0.09 |
| CCOCCC1(CNC2CCCC2C2COCCN2C(=O)OC(C)(C)C)CCCC1 (configuration not stated) | 1 | -0.11 |
| CN(CC(C)(CO)CO)C(=O)Nc1cccc(F)c1F | -9 | 1.62 |
| Cc1cccc2oc(CNC(=O)CCn3ccc(=O)[nH]c3=O)nc12 | -16 | 2.02 |
| Cc1nnc2c(NC(=O)NCc3ccco3)cccn12 | -21 | 4.02 |
| CC(=O)c1cccc(NC(=O)Cn2c(=O)n(-c3ccccc3)c(=O)c3c2cc(C)n3C)c1 | -12 | 1.12 |
| O=C(CN1C(=O)c2ccccc2C1=O)N1CCN(Cc2ccc3c(c2)OCO3)CC1 | -9 | 1.69 |
| COc1ccc(NS(=O)(=O)c2cc(-c3ccno3)oc2C)cc1 | -9 | 1.07 |
| CC1(C)CCC[C@@](O)(CNc2nc(C3CC3)ns2)C1 | -4 | 0.35 |
| CC1(C)C(N)CC1NC(=O)c1cccc(F)c1F (configuration not stated) | -4 | 0.66 |

| SMILES | % Inhibition [%] | Z score |
| --- | --- | --- |
| Cn1cc(NC(=O)NC[C@H]2CCCN2CC(F)(F)F)nn1 | 6 | -1.16 |
| O[C@H]1CCCN(c2ccnc(N3CCOc4ccccc4C3)n2)C1 | -11 | 1.43 |
| CCOC(=O)N1CCN(C(=O)Cn2cnc3c(nnn3-c3ccc(OC)c(OC)c3)c2=O)CC1 | -2 | 0.39 |
| O=C(Nc1cccc(F)c1)C1CCN(C(=O)c2ncccc2O)CC1 | -7 | 0.92 |
| CCOC(=O)C(=O)NCCN1CCOCC1 | -2 | 0.29 |
| CNC(=O)c1snc(-c2ccncc2)c1N | -2 | 0.18 |
| COc1ccc(CNC(=O)[C@]2(C)Cn3cnc(C(=O)Nc4ccc(C)cc4)c3C(=O)N2C2CC2)cc1 | -3 | 0.5 |
| CCCCn1c(N)c(N(Cc2ccco2)C(=O)COC2CCCC2)c(=O)[nH]c1=O | 5 | -0.7 |
| COc1ccccc1-n1nc(-c2ccccc2)n(CC(=O)NC2CC2)c1=O | -2 | 0.31 |
| CCc1cccc(NC(=O)Cn2c(=O)n(C(C)C)c(=O)c3nscc32)c1 | -5 | 0.65 |
| CC1(C)C(CNC(=O)C2CS(=O)(=O)CC2C(F)(F)F)C1(C)C (configuration not stated) | 17 | -1.92 |
| CC(C)CCNC(=O)CN1C(=O)CCn2nc(-c3cccc(Cl)c3)cc21 | -12 | 1.2 |
| CCN(CCc1nc2ccccc2[nH]1)Cc1nnc(C)s1 | 5 | -0.88 |
| Nc1ccnc(CONC(=O)CCC2CCCCC2)n1 | 3 | -0.53 |
| O=C(N[C@H]1CCCCNC1=O)c1cc2c(F)cccc2s1 | -42 | 4.96 |
| CCN(C(=O)c1occc1C)c1ccc(Br)cn1 | -4 | 0.49 |
| Cc1nc(C)c(CNCC2(C#N)CCCCC2)o1 | -7 | 1.14 |
| Cc1nn(-c2ccc(Cl)cc2)cc1C(=O)NC[C@H](C)C(=O)O | -13 | 1.37 |
| COc1ccccc1NC(=O)c1cccc(C(=O)Nc2ccccc2OC)n1 | -7 | 0.75 |
| Cc1cnc(C2CCC2)n1CCNC(=O)c1ccnn1C | 2 | -0.19 |
| CC(C)(C)C1CCC2(CC1)CC(=O)c1ccc(OCC(=O)N3CCC(O)CC3)cc1O2 (configuration not stated) | 1 | -0.08 |
| Oc1ccccc1-c1oncc1-c1ccc2c(c1)OCCO2 | -14 | 2.71 |

| SMILES | % Inhibition [%] | Z score |
| --- | --- | --- |
| COc1cccc(CC(=O)Nc2ccc3[nH]c(=O)[nH]c3c2)c1 | -5 | 0.62 |
| C[C@H](NC(=O)c1cn(CCCc2ccccc2)nn1)c1ccc(F)cc1 | -13 | 1.17 |
| Cc1noc(C2CN(C(=O)c3cc(-c4ccccc4)on3)C2)n1 | -3 | 0.57 |
| CCOc1ccccc1C(=O)N1CCc2ncncc2C1 | -9 | 1.48 |
| O=C(c1cc(-c2ccccc2)n2nc(-c3ccccc3)cc2n1)N1CCN(c2ccccc2F)CC1 | 3 | -0.35 |
| Cc1nc2n(n1)C(c1cccs1)CC(C)N2 (configuration not stated) | 24 | -2.75 |
| CCc1nc(OC)ccc1NC(=O)c1sc([C@H]2CCOC2)nc1C | 0 | -0.05 |
| CC1(C)C[C@@H](C(=O)O)N(C(=O)OC(C)(C)C)C1 | -12 | 2.27 |
| COc1cc(C)ccc1OCCc1c(C)noc1C | -6 | 0.74 |
| O=C(NCC(O)COCC1CC1)NC1CC1c1cccc(Cl)c1 (configuration not stated) | -11 | 1.11 |
| O=C(Nc1cccc(-c2noc(-c3cnccn3)n2)c1)c1cccs1 | -28 | 4.27 |
| CO[C@@H](C)c1noc(CN2CCN(c3cccc(OCc4ccccc4Cl)c3)CC2)n1 | -4 | 0.59 |
| Clc1ccc([C@@H]2CN(Cc3noc(-c4ccccc4)n3)CCO2)cc1 | -5 | 0.61 |
| COc1ccnc(N2CCN(c3nnc(C)o3)CC2)n1 | -14 | 1.28 |
| CNc1cc(C(=O)N2CC[C@@H]3OCc4cccc(c4)Oc4ccc(cc4)CCC(=O)N(CCCO)CC(=O)N[C@H]3C2)ccn1 | -8 | 1.52 |
| O=S(=O)(CCN1CCC[C@H](Cn2cncn2)C1)C(F)(F)F | -3 | 0.47 |
| C[C@H]1CN(C(=O)c2cccc(=O)[nH]2)CCN1C1CCCC1 | -7 | 1.1 |
| Cc1n[nH]c(C(=O)N2C[C@H](C)[C@@](O)(C3CC3)C2)c1Cl | -9 | 1.76 |
| COC(=O)c1cc(C2CC2)nc2c1c(=O)n(Cc1ncc(C)c(OC)c1C)c(=O)n2-c1ccccc1 | -15 | 1.92 |
| Cc1cc(OCc2cc(C(=O)N3CC[C@H](O)C3)no2)cc(C)c1Cl | -7 | 1.01 |
| CCCCN(C)C(=O)c1cnn(-c2nccc(-c3ccc(C)o3)n2)c1C | -18 | 2.77 |
| CCN(c1ccccc1)c1ccc(CNC(=O)N2CC(C)C(C)(CO)C2)cc1 (configuration not stated) | -10 | 1.84 |

| SMILES | % Inhibition [%] | Z score |
| --- | --- | --- |
| CCC[C@H]1CN(c2nccs2)C[C@@H]1N(C)C | -13 | 2.57 |
| COc1ccccc1CNCCC(C)C | -15 | 1.7 |
| Cn1ncc2c(NCc3ccccc3)nc(N3CCCCC3)nc21 | 1 | -0.27 |
| COc1cccc(C2CC(C)CN2Cc2cnn(C)c2)c1 (configuration not stated) | -3 | 0.34 |
| O=C(Cn1cc(S(=O)(=O)N2CCCCC2)ccc1=O)N1CCCc2ccccc21 | -7 | 1.39 |
| Cc1ccc(OCC(=O)N2CCC3(CC2)C[C@@H](N2CCCCC2)CCO3)cc1 | 7 | -0.87 |
| CCOc1ccccc1CN1C[C@@H](CO)[C@H](NC(=O)c2cnccn2)C1 | -9 | 1.48 |
| CC1CCCc2cc(-c3noc(C(C)c4cnn(C)c4)n3)c(=O)[nH]c21 (configuration not stated) | -10 | 1.14 |
| C[C@H](NC(=O)c1ccc2c(=O)n3c(nc2c1)CCCCCC3)c1cccc(Cl)c1 | -15 | 1.56 |
| O=S(=O)(Cl)c1ccc(-c2cnns2)cc1 | -13 | 1.77 |
| COC(=O)c1ccc(CNC(=O)OC(C)(C)C)nc1 | 2 | -0.28 |
| Cc1ccc(CCN2C(=O)CC[C@@H]3CN(C(=O)c4ccco4)CC[C@@H]32)o1 | -2 | 0.4 |
| O=C1CCC2(CCN(C(=O)NC3CCCC3)CC2)CN1Cc1ccncc1 | -28 | 2.43 |
| CCNC(=O)C1(CNC(=O)c2scnc2C(C)C)CCC1 | -3 | 0.46 |
| CC(C)[C@H](NC(=O)Nc1cnc2[nH]ccc2c1)C(N)=O | -6 | 0.62 |
| CCOC(=O)[C@H](C)N1CCCN(C(=O)CC)CC1 | 5 | -0.44 |
| O=C(C[C@H]1CCCOC1)Nc1ccc(Oc2nnn[nH]2)cc1 | 0 | -0.09 |
| COc1ccc(OC)c(Cc2nnc(CCC(=O)NCc3nc4ccccc4s3)o2)c1 | -11 | 2 |
| Cc1c(CC(=O)Nc2ccc3c(c2)CCC3)cnn1C | -2 | 0.34 |
| O=C(N[C@H]1CC(=O)N(c2ccccc2)C1)c1cccc(-c2ncon2)c1 | -14 | 1.89 |
